Some of the results follow.
What was measured:
[1] = system: HSkMC (human skeletal muscle cells); test: cytotoxicity call (relative viability < 0.9); conditions: 10 µM
[2] = system: HepG2; test: cytotoxicity call (relative viability < 0.9); conditions: 10 µM
[3] = system: S. aureus RN4220; test: growth inhibition call (relative growth <= 0.2); conditions: 50 µM

SMILES: C[C@@H]1CN([C@H](C)CO)C(=O)Cc2cc(NS(=O)(=O)c3ccc(Cl)cc3)ccc2O[C@@H]1CN(C)C(=O)Nc1ccc(C(F)(F)F)cc1
- cytotoxicity call [1]: inactive
- cytotoxicity call [2]: inactive
- growth inhibition call [3]: inactive

SMILES: O=C(C[C@H]1C[C@H]2c3cc(NC(=O)NC4CCCC4)ccc3O[C@H]2[C@@H](CO)O1)NCc1ccc(-c2ccccc2)cc1
- cytotoxicity call [1]: inactive
- cytotoxicity call [2]: inactive
- growth inhibition call [3]: inactive

SMILES: O=C(CN1CCOCC1)N[C@H]1CC[C@@H](CCn2cc(C3CCCC3)nn2)O[C@@H]1CO
- cytotoxicity call [1]: inactive
- cytotoxicity call [2]: inactive
- growth inhibition call [3]: inactive

SMILES: O=C(NO)c1ccc(-c2cn(CC[C@@H]3OC(=O)[C@H](Cc4ccccc4)N4CC5=CC(=O)[C@H](C6CC6)[C@H]5[C@H]34)nn2)cc1
- cytotoxicity call [1]: inactive
- cytotoxicity call [2]: inactive
- growth inhibition call [3]: inactive

SMILES: C[C@H](CO)N1C[C@H](C)[C@H](CN(C)C(=O)[C@H](C)c2ccccc2)OCc2ccccc2-c2c(n(C)c3ccccc23)C1=O
- cytotoxicity call [1]: inactive
- cytotoxicity call [2]: active
- growth inhibition call [3]: inactive

SMILES: C[C@H]1CN([C@@H](C)CO)C(=O)c2cccc(NC(=O)Nc3cccc4ccccc34)c2O[C@H]1CN(C)C(=O)Nc1cccc2ccccc12
- cytotoxicity call [1]: inactive
- cytotoxicity call [2]: inactive
- growth inhibition call [3]: inactive

SMILES: COc1ccc(S(=O)(=O)N(C)C[C@H]2Oc3ccc(NC(=O)c4ccncc4)cc3CC(=O)N([C@H](C)CO)C[C@H]2C)cc1
- cytotoxicity call [1]: inactive
- cytotoxicity call [2]: inactive
- growth inhibition call [3]: inactive

SMILES: C[C@@H]1CN([C@H](C)CO)C(=O)c2cccc(NC(=O)c3ccc(-c4nccs4)cc3)c2O[C@@H]1CN(C)Cc1ccc2c(c1)OCO2
- cytotoxicity call [1]: inactive
- cytotoxicity call [2]: inactive
- growth inhibition call [3]: inactive

SMILES: COc1ccc(S(=O)(=O)N(C)C[C@@H]2Oc3cc(C#CC4CCCC4)ccc3S(=O)(=O)N([C@@H](C)CO)C[C@H]2C)cc1
- cytotoxicity call [1]: inactive
- cytotoxicity call [2]: inactive
- growth inhibition call [3]: inactive

— the antibiotic and cytotoxicity screens of Wong et al. (2023)
